Experimental data: patent US9249147B2, “Tyrosine kinase inhibitors” (CHEMBRIDGE CORPORATION, priority 2008, dated 2016)
Where “and” joins values, the source holds several entries; their conditions need not be identical. Identical values can stand only once.

Assays:
[1] = tested on: HepG2; assay: Cytotoxicity panel in HepG2 (Cerep ADMET study 13170); format: cell-based, human; conditions: for Cell Number % Effect (relative to controls), Mean: HepG2, 72 hours; for Cell Number % Effect (relative to controls), Mean / Mitochondrial Membrane Potential % Effect (relative to controls), Mean / Nuclear size % Effect (relative to controls), Mean: % inhibition; for Intracellular Free Calcium % Effect (relative to controls), Mean / Membrane permeability % Effect (relative to controls), Mean / Mitochondrial Membrane Potential % Effect (relative to controls), Mean / Nuclear size % Effect (relative to controls), Mean / Cell Number % Effect (relative to controls), 1st/2nd/3rd / Intracellular Free Calcium % Effect (relative to controls), 1st/2nd/3rd / Membrane permeability % Effect (relative to controls), 1st/2nd/3rd / Mitochondrial Membrane Potential % Effect (relative to controls), 1st/2nd/3rd / Nuclear size % Effect (relative to controls), 1st/2nd/3rd: HepG2; for Intracellular Free Calcium % Effect (relative to controls), Mean / Membrane permeability % Effect (relative to controls), Mean: % increase; for Cell Number % Effect (relative to controls), 1st/2nd/3rd / Intracellular Free Calcium % Effect (relative to controls), 1st/2nd/3rd / Membrane permeability % Effect (relative to controls), 1st/2nd/3rd / Mitochondrial Membrane Potential % Effect (relative to controls), 1st/2nd/3rd / Nuclear size % Effect (relative to controls), 1st/2nd/3rd: individual replicates, listed as CRL241
Procedure: (§1) In addition to the above proliferation inhibition experiments, compound (II) was tested for cytotoxicity at Cerep (ADMET study 13170) with human hepatocellular carcinoma cell line HepG2. Several cellular parameters, such as nuclear size, mitochondrial membrane potential, intracellular free calcium, membrane permeability and cell numbers were measured during this study to evaluate cytotoxicity at 0.5, 5 and 20 μM compound concentrations.
(§2) Raw data will be expressed as % of effect (either inhibition or increase) relative to the untreated control cells. The data will also be normalized using the reference compound (cerivastatin), whose maximum effect will be considered “100% effect.” The reference compound will also be used to define the top and bottom of the dose-response curve, if one is calculated. […] The results include the following end points:
(§3) Nuclear Size: expressed as % inhibition relative to control values.
(§4) Mitochondrial Membrance Potential: expressed as % inhibition relative to control values.
(§5) Intracellular Free Calcium: expressed as % increase relative to control values.
(§6) Membrance permeability: expressed as % increase relative to control values.
(§7) Cell Numbers: expressed as % inhibition relative to control values.

[2] = as above; format: cell-based, human; conditions: human, HepG2 cells; HepG2; estimate; read-out: Nonspecific cytotoxicity IC50
Procedure: as §1, §2, §3, §4, §5, §6, §7

[3] = target: T1, CYP2C19 (Homo sapiens, UniProt P33261); assay: CYP2C19 Inhibition (recombinant, CEC substrate); format: in vitro ADME
T1 construct: purchased Cerep (contract assay, ADMET Study 13170)
T1 sequence (P33261 whole entry): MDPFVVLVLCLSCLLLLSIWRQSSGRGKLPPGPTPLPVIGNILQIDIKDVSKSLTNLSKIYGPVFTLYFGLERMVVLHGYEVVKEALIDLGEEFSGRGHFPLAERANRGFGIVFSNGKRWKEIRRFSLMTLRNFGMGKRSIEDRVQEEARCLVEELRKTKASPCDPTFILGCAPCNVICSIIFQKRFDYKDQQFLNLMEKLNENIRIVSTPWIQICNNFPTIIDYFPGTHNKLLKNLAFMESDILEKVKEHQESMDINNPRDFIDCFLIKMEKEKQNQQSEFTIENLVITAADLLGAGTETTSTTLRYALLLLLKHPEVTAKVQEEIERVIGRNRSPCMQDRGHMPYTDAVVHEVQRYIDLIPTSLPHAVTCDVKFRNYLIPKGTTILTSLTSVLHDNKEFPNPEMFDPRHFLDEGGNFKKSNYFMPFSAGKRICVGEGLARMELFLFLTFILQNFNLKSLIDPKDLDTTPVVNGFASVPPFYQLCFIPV

[4] = target: ROS (Homo sapiens, UniProt P08922); assay: Invitrogen SelectScreen Z-lyte kinase assay, Ros; format: biochemical; parameters: purchased Invitrogen (SelectScreen service); conditions: 100 μM ATP
Procedure: (§8) To evaluate selectivity versus other kinases, inhibition of various kinases by compound (II) was determined. In particular, IC50s for TrkA, Jak2, Axl tyrosine kinases were determined using ADP Hunter (DiscoverX) kinase assay. Single point profiling of compound (II) on 50 human tyrosine kinases and 10 Ser-Thr kinases was done at Upstate/Millipore by radiometric assay. […] The subset of the 520 kinases in the human kinome that were tested was strategically selected to cover most of the therapeutically relevant tyrosine kinases and to represent major branches of serine-threonine kinases.
(§9) Compound (II) was a multitargeted tyrosine kinase (TK) inhibitor with a distinct pattern of inhibition focused on ALK, Trk family, Ros and Ret kinases. Invitrogen SelectScreen (Z-lyte assay) produced the following IC5O values for this set of kinases: ALK 9.75 nM, TrkA 1.5 nM, TrkB 1.4 nM, TrkC 1.8 nM, Ret 7.1 nM, Ros 1.8 nM (all measured at 100 μM ATP). […] About 70% of the 50 TKs tested have selectivity in excess of 50-fold for ALK and higher for Ret, Ros and Trk family members.

[5] = target: TRKA (Homo sapiens, UniProt P04629); assay: Invitrogen SelectScreen Z-lyte kinase assay, TrkA; format: biochemical; parameters: purchased Invitrogen (SelectScreen service); conditions: 100 μM ATP
Procedure: as §8, §9

[6] = target: hERG (Homo sapiens, UniProt Q12809); assay: hERG Qpatch 16 automated whole-cell patch clamp in CHO-K1 (Cerep hERG Study 13292); format: cell-based; conditions: for % Inhibition of Tail current (mean): CHO-K1, automated patch clamp; for % Inhibition of Tail current, individual data: 1st/2nd (Table 6D also 3rd)
Procedure: The cardiac potassium channel, hERG, is responsible for the rapid delayed rectifier current (IKr) in the human ventricle. Inhibition of IKr is the most common cause of cardiac action potential prolongation by noncardiac drugs. Increased action potential duration causes prolongation of the QT interval that has been associated with a dangerous ventricular arrhythmia, torsade de pointer.
Compound (II) was initially tested at 1 μM concentration using a standard patch clamp protocol (Cerep ADMET Study 13170). The hERG channel was expressed in a human embryonic kidney (HEK293) cell line that lacks endogenous hERG channels. […] We have retested compound (II) in hERG assay in a range of lower concentrations to estimate IC50 of hERG inhibition more precisely (Qpatch 16 automated whole-cell patch clamp protocol in CHO-K1 cell line stably expressing hERG, Cerep hERG Study 13292). […] This kind of potency in hERG inhibition should not represent a significant clinical problem since the high degree of hERG inhibition would occur only at the compound concentrations above the expected therapeutic levels.

[7] = target: T2, CYP3A4 (Homo sapiens, UniProt P08684); assay: CYP3A4 Inhibition (recombinant, BFC substrate); format: in vitro ADME
T2 construct: purchased Cerep (contract assay, ADMET Study 13170)
T2 sequence (P08684 whole entry): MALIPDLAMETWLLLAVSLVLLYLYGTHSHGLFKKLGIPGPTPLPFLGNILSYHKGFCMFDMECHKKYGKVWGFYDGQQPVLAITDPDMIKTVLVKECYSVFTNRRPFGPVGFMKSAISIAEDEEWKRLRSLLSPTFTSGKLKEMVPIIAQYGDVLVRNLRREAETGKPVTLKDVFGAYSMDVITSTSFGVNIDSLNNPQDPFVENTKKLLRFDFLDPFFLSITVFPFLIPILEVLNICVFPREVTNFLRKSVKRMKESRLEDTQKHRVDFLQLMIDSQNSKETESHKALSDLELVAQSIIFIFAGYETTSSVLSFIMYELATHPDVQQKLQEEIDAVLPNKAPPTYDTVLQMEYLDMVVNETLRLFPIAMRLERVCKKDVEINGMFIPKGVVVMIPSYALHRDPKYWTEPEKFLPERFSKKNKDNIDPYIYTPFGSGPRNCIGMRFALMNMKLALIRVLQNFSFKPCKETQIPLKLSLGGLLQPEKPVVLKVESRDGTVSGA

[8] = Partition Coefficient (Log D, n-octanol/PBS, pH 7.4); format: physicochemical; conditions: 1.0E−04 M, read-out: Partition Coefficient Log D, Weighed Average of Three Replicates
[9] = target: T3, TrkB (Homo sapiens, UniProt Q16620); assay: Invitrogen SelectScreen Z-lyte kinase assay, TrkB; format: biochemical; conditions: 100 μM ATP
T3 construct: purchased Invitrogen (SelectScreen service)
Procedure: as §8, §9

## Cc1ccc(F)cc1C[C@H](C)Nc1cc[nH]c(=O)c1-c1nc2cc3c(cc2[nH]1)C(=O)N(CCN1CCCC1)C3 [compound (II)]
[1]; 2.0E−05 M
  Cell Number % Effect (relative to controls), Mean: 68%
  Intracellular Free Calcium % Effect (relative to controls), Mean: −2%
  Membrane permeability % Effect (relative to controls), Mean: 145%
  Mitochondrial Membrane Potential % Effect (relative to controls), Mean: 101%
  Nuclear size % Effect (relative to controls), Mean: 55%
  Cell Number % Effect (relative to controls), 1st/2nd/3rd: 63.8% and 71.0% and 70.5%
  Intracellular Free Calcium % Effect (relative to controls), 1st/2nd/3rd: −2.2% (2×) and −2.0%
  Membrane permeability % Effect (relative to controls), 1st/2nd/3rd: 151.4% and 149.2% and 134.1%
  Mitochondrial Membrane Potential % Effect (relative to controls), 1st/2nd/3rd: 100.5% (2×) and 100.6%
  Nuclear size % Effect (relative to controls), 1st/2nd/3rd: 55.6% and 54.2% and 55.9%
[1]; 5.0E−06 M
  Cell Number % Effect (relative to controls), Mean: 72%
  Intracellular Free Calcium % Effect (relative to controls), Mean: 21%
  Membrane permeability % Effect (relative to controls), Mean: 205%
  Mitochondrial Membrane Potential % Effect (relative to controls), Mean: 100%
  Nuclear size % Effect (relative to controls), Mean: 91%
  Cell Number % Effect (relative to controls), 1st/2nd/3rd: 68.1% and 72.2% and 74.5%
  Intracellular Free Calcium % Effect (relative to controls), 1st/2nd/3rd: 20.9% and 22.1% and 21.4%
  Membrane permeability % Effect (relative to controls), 1st/2nd/3rd: 203.0% and 221.0% and 191.2%
  Mitochondrial Membrane Potential % Effect (relative to controls), 1st/2nd/3rd: 100.1% (2×) and 100.5%
  Nuclear size % Effect (relative to controls), 1st/2nd/3rd: 91.7% (2×) and 88.6%
[1]; 5.0E−07 M
  Cell Number % Effect (relative to controls), Mean: −7%
  Intracellular Free Calcium % Effect (relative to controls), Mean: 0%
  Membrane permeability % Effect (relative to controls), Mean: 1%
  Mitochondrial Membrane Potential % Effect (relative to controls), Mean: 9%
  Nuclear size % Effect (relative to controls), Mean: 9%
  Cell Number % Effect (relative to controls), 1st/2nd/3rd: 3.6% and −13.2% and −10.9%
  Intracellular Free Calcium % Effect (relative to controls), 1st/2nd/3rd: 0.9% and −0.5% and −0.3%
  Membrane permeability % Effect (relative to controls), 1st/2nd/3rd: 2.0% and 1.5% and 0.7%
  Nuclear size % Effect (relative to controls), 1st/2nd/3rd: 14.5% and 5.5% and 6.2%
[1]; HepG2, cumulative
  Cytotoxicity panel overall result: cytotoxic and pro-apoptotic
[2]
  IC50: 2000 to 3000 nM
[3]; human, recombinant CYP2C19, probe CEC, 1.0E−06 M, Table 5B individual results, read-out: CYP2C19 % Inhibition of Control Values, 1st/2nd/3rd
  activity at 1 µM: 19.5%
[3]; human, recombinant CYP2C19, probe CEC, 5.0E−06 M, Table 5B individual results, read-out: CYP2C19 % Inhibition of Control Values, 1st/2nd/3rd
  activity at 5 µM: 9.5%
[3]; human, recombinant CYP2C19, probe CEC, 1.0E−06 M, read-out: CYP2C19 % Inhibition of Control Values
  inhibition at 1 µM: 80%
[3]; human, recombinant CYP2C19, probe CEC, 5.0E−06 M, read-out: CYP2C19 % Inhibition of Control Values
  inhibition at 5 µM: 90%
[3]; suggested by % inhibition at 1 and 5 μM
  approximate IC50 CYP2C19: triple-digit nM
[4]
  IC50: 1.8 nM
[5]
  IC50: 1.5 nM
[6]; 1.0E−07 M (100 nM)
  % Inhibition of Tail current (mean): 28%
[6]; 1.0E−07 M (100 nM), listed as CRL-241
  % Inhibition of Tail current (mean): 28.0%
[6]; 1.0E−07 M, listed as CRL-241
  % Inhibition of Tail current, individual data: 28.1% and 27.9% and 28.0%
[6]; 2.5E−08 M (25 nM)
  % Inhibition of Tail current (mean): 22.5%
[6]; 2.5E−08 M, listed as CRL-241
  % Inhibition of Tail current, individual data: 24.5% and 20.6% and 22.5%
[6]; 5.0E−07 M (500 nM)
  % Inhibition of Tail current (mean): 38.5%
[6]; 5.0E−07 M, listed as CRL-241
  % Inhibition of Tail current, individual data: 40.3% and 36.6% and 38.5%
[6]; suggested by % inhibition values
  IC50: ~1000 nM
[7]; human, recombinant CYP3A4, probe BFC, 1.0E−06 M, Table 5B individual results, read-out: CYP3A4 % Inhibition of Control Values, 1st/2nd/3rd
  activity at 1 µM: 53.7%
[7]; human, recombinant CYP3A4, probe BFC, 5.0E−06 M, Table 5B individual results, read-out: CYP3A4 % Inhibition of Control Values, 1st/2nd/3rd
  activity at 5 µM: 4.6%
[7]; human, recombinant CYP3A4, probe BFC, 1.0E−06 M, read-out: CYP3A4 % Inhibition of Control Values
  inhibition at 1 µM: 46%
[7]; human, recombinant CYP3A4, probe BFC, 5.0E−06 M, read-out: CYP3A4 % Inhibition of Control Values
  inhibition at 5 µM: 95%
[7]; read-out: approximate IC50 CYP3A4
  IC50: ~1000 nM
[8]
  logD: 3.63
[9]
  IC50: 1.4 nM
